{"source": "PubChem BioAssay AID463173", "about": "(ICCB-Longwood Screening Facility, Harvard Medical School, 2010)", "note": "Screen size: about 52,000 compounds; about 4,300 (8.3%) were called active. Cut-off read from the data, not from the text of the source: active = survival mostly below about 52% (no sharp cut-off); inactive = mostly above about 56%. This is one part of the list."}
{"system": "DeltatarO mutant", "assay": "growth inhibition of S. aureus wild type versus tarO mutant, primary screen, teichoic acid synthesis inhibitors, RN4220, OD600 (AID 463173)", "conditions": "OD600, 18 h, hits give low values, screened at 18.75 µg/mL (by protocol)"}
{"smiles": "O=C(Cc1ccccc1)Nc1sc2c(c1C(=O)Nc1ccccc1Cl)CCCCC2", "survival": "inactive: 47%"}
{"smiles": "CC(C)c1ccc(NC(=O)CSC2=Nc3ccccc3C3=NC(CCC(=O)NC4CCCCC4)C(=O)N23)cc1", "note": "(centres undefined)", "survival": "inactive: 88%"}
{"smiles": "Cc1cc(C)n(-c2nc(N(c3ccccc3)c3ccccc3)nc(-n3nc(C)cc3C)n2)n1", "survival": "inactive: 95%"}
{"smiles": "COc1ccc2c(c1)CCc1c(C(=O)Nc3cc(OC)c(Cl)cc3OC)noc1-2", "survival": "inactive: 151%"}
{"smiles": "COC(=O)c1cc(Nc2nc3ccccc3nc2NS(=O)(=O)c2ccc(C)cc2)ccc1Cl", "survival": "active: 29%"}
{"smiles": "O=C(Cn1c(=O)n(Cc2nc(-c3ccccc3)no2)c(=O)c2cc3c(cc21)OCO3)Nc1ccccc1", "survival": "inactive: 75%"}
{"smiles": "CCC(C)n1c(=O)c2sccc2n2c(CCCC(=O)N3CCN(c4ccccc4)CC3)nnc12", "note": "(centres undefined)", "survival": "inactive: 89%"}
{"smiles": "CCOc1ccc(-n2c(SCC(=O)Nc3cc(C)ccc3C)nc3c([nH]c4ccccc43)c2=O)cc1", "survival": "inactive: 75%"}
{"smiles": "Cc1ccc(Cn2cc(S(=O)(=O)c3cccc(C)c3)c(=O)c3cc(F)c(N4CCOCC4)cc32)cc1", "survival": "inactive: 84%"}
{"smiles": "COc1ccc(CNC(=O)c2sc3nc4n(c(=O)c3c2C)CCCC4)cc1", "survival": "inactive: 73%"}
{"smiles": "O=C(Nc1cc(-c2ccccc2)sc1C(=O)O)c1cccc(F)c1", "survival": "active: 38%"}
{"smiles": "Cc1ccccc1NC(=O)CSc1nccc(=O)[nH]1", "survival": "inactive: 59%"}
{"smiles": "CCn1c2ccccc2c2cc(CN3CCN(Cc4ccc(Br)cc4)CC3)ccc21", "survival": "active: -1%"}
{"smiles": "CC1N=C2c3ccccc3N=C(SCC(=O)NCCc3ccc(Cl)cc3)N2C1=O", "note": "(centres undefined)", "survival": "inactive: 80%"}
{"smiles": "O=C(CCS(=O)(=O)c1cc2c(cc1Cl)NC(=O)CO2)NCc1ccc(Cl)cc1", "survival": "inactive: 86%"}
{"smiles": "Cc1cccc(Nc2ncnc3onc(-c4ccc(Cl)cc4)c23)c1C", "survival": "inactive: 112%"}
{"smiles": "Cc1ccc(-n2c(=O)c3cccnc3n2CC(=O)NCc2ccc(Cl)cc2)cc1", "survival": "inactive: 50%"}
{"smiles": "Cc1ccc2oc3c(c(=O)c2c1)C(c1ccc(O)cc1)N(CCCN(C)C)C3=O", "note": "(centres undefined)", "survival": "inactive: 130%"}
{"smiles": "COc1ccc(C(=O)Nc2cccc(C(=O)OCc3cc(=O)n4nc(C5CC5)sc4n3)c2)cc1", "survival": "inactive: 115%"}
{"smiles": "Cc1cc(F)ccc1NC(=O)C(c1ccccc1)N1Cc2ccccc2C1=O", "note": "(centres undefined)", "survival": "inactive: 94%"}
{"smiles": "Nc1c(C(=O)Nc2ccc(F)cc2)sc2nc(-c3cccs3)cc(C(F)(F)F)c12", "survival": "inactive: 60%"}
{"smiles": "COC(=O)c1ccc([C@@H]2Nc3c(OC)ccc(C)c3[C@@H]3C=CC[C@@H]32)cc1", "survival": "inactive: 49%"}
{"smiles": "Cc1ccc(-c2cn3cccnc3n2)cc1NC(=O)C(C)(C)Oc1ccc(Cl)cc1", "survival": "inactive: 89%"}
{"smiles": "COc1ccc(Cl)cc1NC(=O)c1c(NCc2ccc(C)o2)sc2c1CCC(C)C2", "note": "(centres undefined)", "survival": "inactive: 81%"}
{"smiles": "Cc1c(C(=O)Nc2ccccc2Br)oc2ccc(S(=O)(=O)N3CCCCCC3)cc12", "survival": "inactive: 74%"}
{"smiles": "C=C(C)CSc1nc2sc3c(c2c(=O)n1Cc1ccccc1)CC(C)(CC)OC3", "note": "(centres undefined)", "survival": "active: 42%"}
{"smiles": "CCC(C)NC(=O)CN1C(=O)c2cccnc2Sc2ccccc21", "note": "(centres undefined)", "survival": "inactive: 87%"}
{"smiles": "COc1cccc(NCc2cccn2-c2nnc(N3CCC(C)CC3)s2)c1", "survival": "inactive: 135%"}
{"smiles": "O=c1cc(-c2ccccc2)c2ccc3c(c2o1)CN(Cc1cccc(Cl)c1)CO3", "survival": "inactive: 52%"}
{"smiles": "Cc1ccccc1NC(=O)Cn1c(=O)n(CCCC(=O)NCc2ccc3c(c2)OCO3)c(=O)c2ccccc21", "survival": "inactive: 111%"}
{"smiles": "COc1ccc2[nH]cc(CCN=C(NC(=O)c3ccccc3F)Nc3nc(C)cc(C)n3)c2c1", "survival": "inactive: 99%"}
{"smiles": "COC(=O)c1ccccc1NC(=O)c1noc2c1CSc1ccccc1-2", "survival": "inactive: 67%"}
{"smiles": "COc1ccc2nc(NC(=O)c3ccc(S(=O)(=O)N4CCC(C)CC4)cc3)sc2c1", "survival": "inactive: 91%"}
{"smiles": "CCOC(=O)c1cccc(NC(=O)NCCc2c(C)nn(C)c2C)c1", "survival": "inactive: 79%"}
{"smiles": "Cc1cccc(C)c1OCCCCn1c(C2CC(=O)N(c3ccc(F)cc3)C2)nc2ccccc21", "note": "(centres undefined)", "survival": "inactive: 77%"}
{"smiles": "CCc1ccc(NC(=O)N2CCN(Cc3cc(=O)n4nc(-c5ccccc5OC)sc4n3)CC2)cc1", "survival": "inactive: 94%"}
{"smiles": "Cn1c(=O)c2sccc2n2c(CCC(=O)N3CCN(c4ccccc4)CC3)nnc12", "survival": "inactive: 187%"}
{"smiles": "CCOc1cc(S(=O)(=O)N2CCC(c3nc4ccccc4s3)CC2)c(OCC)cc1S(=O)(=O)N1CCOCC1", "survival": "inactive: 98%"}
{"smiles": "COC(=O)C(Sc1nc(C)cc(C)c1C#N)c1ccccc1", "note": "(centres undefined)", "survival": "inactive: 64%"}
{"smiles": "COc1ccccc1Cc1nc2ccccc2nc1SCC(=O)NCCc1ccccc1", "survival": "inactive: 102%"}
{"smiles": "CCN(CC)CCCNC(=O)c1c(C)oc2ncnc(N3CCOCC3)c12", "survival": "inactive: 124%"}
{"smiles": "CCc1noc2nc(C)n(CC(=O)O)c(=O)c12", "survival": "inactive: 106%"}
{"smiles": "CCOC(=O)Cn1cc2c(c1-c1ccc(Cl)cc1)c(=O)n(C)c(=O)n2C", "survival": "inactive: 60%"}
{"smiles": "CN(C(=O)CSc1nc2ccccc2n1CC(=O)NCc1ccc(F)cc1)c1ccc(F)cc1", "survival": "inactive: 128%"}
{"smiles": "CCOc1ccc(CNC(=O)c2ccc(NC(=O)c3nsc4ccccc34)cc2)cc1", "survival": "inactive: 79%"}
{"smiles": "Cc1c(C(=O)NCc2ccc(Cl)cc2)sc2nc3n(c(=O)c12)CCCC3", "survival": "inactive: 95%"}
{"smiles": "COc1ccc(-c2cc(C(=O)Nc3cc(C)ccc3O)no2)cc1OC", "survival": "inactive: 56%"}
{"smiles": "CCn1c(=N)c(C(=O)NCc2cccnc2)cc2c(=O)n3cc(C)ccc3nc21", "survival": "inactive: 52%"}
{"smiles": "O=S(=O)(NCC(c1ccco1)N1CCN(c2ccc(F)cc2)CC1)c1ccccc1", "note": "(centres undefined)", "survival": "inactive: 61%"}
{"smiles": "O=C(Cn1c(=O)sc2ccccc21)Nc1nc2c(s1)CCCC2", "survival": "inactive: 75%"}
{"smiles": "COc1ccc(-c2nc(CSCC(=O)NCCc3ccc(C)cc3)c(C)o2)cc1OC", "survival": "inactive: 56%"}
{"smiles": "CCCCN(C(=O)c1cccc(S(=O)(=O)N2CCCCC2)c1)C1CCS(=O)(=O)C1", "note": "(centres undefined)", "survival": "inactive: 117%"}
{"smiles": "COCCCNC(=O)c1sc2ncccc2c1-n1cccc1", "survival": "inactive: 75%"}
{"smiles": "COc1ccc(C2CC(=O)c3c([nH]c(C(=O)OC4CCC(C)CC4)c3C)C2)cc1OC", "note": "(centres undefined)", "survival": "inactive: 78%"}
{"smiles": "O=C(Nc1ccc(F)c(Cl)c1)N1CCN2CCCCC2C1", "note": "(centres undefined)", "survival": "inactive: 69%"}
{"smiles": "Cc1cccc(-n2c(=O)c3c(c4cc(C)ccc4n3C)n(CC(=O)Nc3ccccc3C(F)(F)F)c2=O)c1", "survival": "inactive: 91%"}
{"smiles": "c1ccc(C(c2cccs2)c2c[nH]c3ccccc23)cc1", "note": "(centres undefined)", "survival": "active: -1%"}
{"smiles": "Cc1ccc(-c2noc(CN(C3CCCCC3)S(=O)(=O)c3ccc(Cl)cc3)n2)cc1", "survival": "inactive: 81%"}
{"smiles": "COc1ccc(-c2nc3n(n2)C(c2ccccc2F)C(C(=O)Nc2cccnc2)=C(C)N3)cc1OC", "note": "(centres undefined)", "survival": "inactive: 81%"}
{"smiles": "Cc1ccc(CNc2ncnc3c2c(-c2ccccc2)cn3-c2cccc(Cl)c2)cc1", "survival": "inactive: 94%"}
{"smiles": "CCN1C(=O)c2cccc3c(S(=O)(=O)Nc4ccc(O)c(C(=O)O)c4)ccc1c23", "survival": "inactive: 70%"}
{"smiles": "CC(C)(C)OC(=O)N1CCC(c2c(C(=O)N3CCc4ccccc4C3)cnn2-c2ccc(Cl)cc2)CC1", "survival": "inactive: 91%"}
{"smiles": "CCOc1ccccc1C(=O)N(Cc1ccc(N(C)C)cc1)CC1CCCO1", "note": "(centres undefined)", "survival": "inactive: 54%"}
{"smiles": "CCOc1ccc2[nH]c(=O)c(CN(CCOC)C(=O)Nc3ccccc3C)cc2c1", "survival": "inactive: 67%"}
{"smiles": "Cc1cc(C)cc(C(=O)N2CC(=O)Nc3ccc(C)cc3C2c2ccccc2)c1", "note": "(centres undefined)", "survival": "inactive: 72%"}
{"smiles": "CCCCNC(=O)CSc1nc2cc3c(cc2c(=O)n1CCCC(=O)NCc1ccc2c(c1)OCO2)OCO3", "survival": "inactive: 80%"}
{"smiles": "COc1ccc(NCc2ccccc2-c2nnc(-c3ccccc3)o2)cc1Cl", "survival": "inactive: 86%"}
{"smiles": "Cc1ccc2cccc(NC(=O)c3cccc4ccccc34)c2n1", "survival": "active: -2%"}
{"smiles": "CCc1cccc2sc(N3CCN(C(=O)C4CC4)CC3)nc12", "survival": "inactive: 94%"}
{"smiles": "Cc1cc(NC(c2nnc(-c3ccccc3)o2)c2ccccc2F)ccc1Br", "note": "(centres undefined)", "survival": "inactive: 40%"}
{"smiles": "Cc1sc2nc(SCC(=O)N(CCO)CCO)n(C3CCCCC3)c(=O)c2c1C", "survival": "inactive: 51%"}
{"smiles": "Cc1nn(C(=O)c2ccccc2F)c(C)c1S(=O)(=O)N1CCOCC1", "survival": "inactive: 84%"}
{"smiles": "COc1ccc(Nc2ncnc3c2cnn3-c2ccc(C)cc2C)cc1", "survival": "inactive: 93%"}
{"smiles": "c1ccc(NCc2ccncc2)cc1", "survival": "inactive: 83%"}
{"smiles": "Cc1ccc(CNC(=O)CSc2ncc(S(=O)(=O)c3ccc(Br)cc3)c(=O)[nH]2)cc1", "survival": "inactive: 125%"}
{"smiles": "Nc1c(C(=O)Nc2ccccc2Cl)c2ccccn2c1C(=O)c1ccc(Cl)cc1", "survival": "inactive: 80%"}
{"smiles": "COc1ccc(NC(=O)CSc2nc3c([nH]c4ccccc43)c(=O)n2C)cc1", "survival": "inactive: 74%"}
{"smiles": "CCc1nn(CC(=O)NCCC(C)C)c(=O)c2cc3occc3n12", "survival": "inactive: 125%"}
{"smiles": "CCn1c(C)c(C2N3CC4(C)CN2CC(CC)(C3)C4=O)c2ccccc21", "note": "(centres undefined)", "survival": "inactive: 108%"}
{"smiles": "COc1ccc(NS(=O)(=O)c2ccc3c(c2)C(C(C)C)C(=O)N3)cc1", "note": "(centres undefined)", "survival": "inactive: 71%"}
{"smiles": "Cc1ccc(CNC(=O)C(=O)NCC(c2cccs2)S(=O)(=O)c2ccc(C)cc2)cc1", "note": "(centres undefined)", "survival": "inactive: 98%"}
{"smiles": "COC(=O)c1sccc1S(=O)(=O)N(CC(=O)NCc1ccccc1)c1ccccc1", "survival": "inactive: 65%"}
{"smiles": "CCn1c(=O)c2cc(C(=O)N(CCCOC(C)C)Cc3ccco3)sc2c2ccccc21", "survival": "active: 8%"}
{"smiles": "O=C(Cn1nnc(-c2cccs2)n1)NC1CC1", "survival": "inactive: 96%"}
{"smiles": "Cc1ccc(-c2sc(C(=O)Nc3ccc(Br)cc3)cc2CC(=O)O)cc1", "survival": "inactive: 49%"}
{"smiles": "Cc1cc(C)c(NC(=O)Cn2c(SCC(=O)NCc3ccccc3)nc3ccccc32)c(C)c1", "survival": "inactive: 88%"}
{"smiles": "Nc1cnn(C2CCCO2)c(=O)n1", "note": "(centres undefined)", "survival": "inactive: 78%"}
{"smiles": "CCOc1ccccc1NS(=O)(=O)c1c(C)nc2sccn2c1=O", "survival": "inactive: 63%"}
{"smiles": "Cc1ccc(S(=O)(=O)Nc2cccc(C)c2)cc1", "survival": "inactive: 83%"}
